Format in all cases: cell-based
One assay addresses CBl receptor (Homo sapiens, UniProt P21554). As to the kind of experiment: Co-incubation of CB1 inverse agonist/antagonist with CP-55940, surface biomarker-labeled CB receptor level.
Assay [1] deals with T1, CB2 receptor (Homo sapiens, UniProt P34972). As to the kind of experiment: Surface level of CB2 receptor labeled by AxCBM2 biomarker after CBD treatment.
Assay [2] deals with T1, CB2 receptor. The assay is described as follows: Internal pool level of CB2 receptor labeled by AxCBM2 biomarker after CBD treatment. To be noted: 2 μM CBD for 60 minutes vs control DMSO.
Another assay concerns MHC-1. As to the kind of experiment: Flow cytometry of MHC-1 recycling in human immune cell under CBD treatment. As to conditions: Jurkat cells, FIG. 9. The text has this:
FIG. 9 are examples of flow cytometry analysis of the level of surface, internalized, and recycled CB2 receptor using AxCBM2 biomarker and MHC-1 in human immune cell under cannabidiol (CBD) treatment.
FIG. 9 provides embodiments of the present invention's application of AxCBM2 biomarkers to detect suppresses the surface CB2 and MHC-1 receptor level (left), receptor recycling (right), and receptor accumulation in cytoplasm internally (middle).
Jurkat cells were fixed with 2% formaldehyde in PBS for 20 mins at room temperature. Incubate cells with Alexa647-conjugated AxCBM2 biomarkers (1 μg/ml) or 10 μ1/ml Alexa647-anti-MHC I (W6/32) antibody for 30 minutes. The mean fluorescent signal is measured for 20,000 events by FACSArray bioanalyzer (BD). FIG. 9 illustrates examples of use of the biomarker to find/utilize a secondary trafficking and pharmokokinetic pathway for the CB2 receptor (surface, internal, recycling). Because the CB2 receptor can go through a completely different pathway, it can affect how a cell differentiates. The kinetics of CB1 And CB2 are different, for example CB2 kinetics are faster. Because CBD inhibits immune response, embodiments of the present invention include tests that can determine the extent/level to which a particular cannabinoid-based drug can suppress the immune response (FIG. 9).

For assay [3], the target named is T1, CB2 receptor. The assay is described as follows: Flow cytometry of CB2 receptor recycling with AxCBM2 biomarker in human immune cell under CBD treatment. To be noted: Jurkat cells, FIG. 9. Further details: Jurkat cells were fixed with 2% formaldehyde in PBS; endogenous in cells; host or cells: Jurkat.
Assay [4] concerns the target T1, CB2 receptor. As to the kind of experiment: Co-incubation of CB2 inverse agonist/antagonist with CP-55940, surface biomarker-labeled CB receptor level. As to conditions: co-incubation with CP-55940, parallel shift; read-out: antagonist dissociation constant (Kb), CB2.

The values below come from patent US20250277783A1, “ENGINEERED CANNABINOID BIOMARKER(S), IN VITRO AND IN VIVO TESTING, AND RELATED APPLICATIONS” (Auxergen Inc., priority 2024, published 2025).

T1 sequence (P34972 whole entry): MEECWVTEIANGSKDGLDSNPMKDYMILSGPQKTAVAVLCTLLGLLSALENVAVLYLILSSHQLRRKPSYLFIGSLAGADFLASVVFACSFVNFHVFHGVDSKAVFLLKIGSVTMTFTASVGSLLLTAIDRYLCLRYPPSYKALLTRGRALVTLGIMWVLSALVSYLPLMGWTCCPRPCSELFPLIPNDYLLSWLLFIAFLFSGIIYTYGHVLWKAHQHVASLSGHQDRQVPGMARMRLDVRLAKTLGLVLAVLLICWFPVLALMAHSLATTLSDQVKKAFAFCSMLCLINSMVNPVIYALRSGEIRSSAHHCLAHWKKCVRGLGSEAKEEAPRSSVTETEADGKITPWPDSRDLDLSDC
Sequence of UniProt P21554 (P21554 whole entry): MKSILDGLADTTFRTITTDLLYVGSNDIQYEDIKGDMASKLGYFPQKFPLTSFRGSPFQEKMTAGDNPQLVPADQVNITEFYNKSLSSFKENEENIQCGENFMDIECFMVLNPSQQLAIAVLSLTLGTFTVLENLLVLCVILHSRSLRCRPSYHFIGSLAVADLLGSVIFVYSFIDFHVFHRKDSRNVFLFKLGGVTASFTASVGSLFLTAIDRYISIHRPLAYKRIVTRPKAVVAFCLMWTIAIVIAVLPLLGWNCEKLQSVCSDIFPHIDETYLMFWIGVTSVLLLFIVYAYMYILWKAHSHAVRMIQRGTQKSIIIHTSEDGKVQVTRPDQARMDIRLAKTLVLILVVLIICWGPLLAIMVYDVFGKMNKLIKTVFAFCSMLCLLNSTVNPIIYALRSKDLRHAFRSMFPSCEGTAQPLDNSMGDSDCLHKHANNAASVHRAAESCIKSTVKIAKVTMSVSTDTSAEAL

Regarding `Cc1c(C(=O)NN2CCOCC2)nn(-c2ccc(Cl)cc2Cl)c1-c1ccc(I)cc1` [AM-281], the “change in IMAX of CP-55940 on co-incubation” value at CBl receptor (co-incubation with CP-55940) is on record as “no change in IMAX”. For the same compound, the Kb on CBl receptor (co-incubation with CP-55940, surmountable antagonism, read-out: antagonist dissociation constant (Kb), CB1) was determined as 149 nM.

For `C=C(C)[C@@H]1CCC(C)=C[C@H]1c1c(O)cc(CCCCC)cc1O` [CBD, cannabidiol], on CB2 receptor [1] (2 μM CBD for 60 minutes vs control DMSO), the “surface level of CB2 receptor, % of the control” value is reported as 18.3%. Besides, on CB2 receptor [1] (time course of surface CB2 receptor level, CBD-treated cells), the “half-life (t1/2) of AxCBM2 biomarker-labeled CB2 receptor internalization” value is roughly 5.3 min. Further, the “internal pool level of CB2 receptor” value at CB2 receptor [2] is recorded as “highly accumulates in vacuole-like endosome”. The MHC-1 recycling result with MHC-1 is “suppress”. In addition, the CB2 receptor recycling entry at CB2 receptor [3] is “suppress”.

Take `COc1ccc(C(=O)c2c(C)n(CCN3CCOCC3)c3cc(I)ccc23)cc1` [AM-630]: the Kb at CB2 receptor [4] is 57.5 nM.
